Assay results from the RNAGym collection of RNA variant scans (doi:10.7554/elife.90254).
The source gives no read counts; variants with many changes may rest on few reads.

B1: LINE1-full (parent)
chain: UACGUAGGUGGUUUUCCCCUGAUAGUGCUAAGGGGGCCUGGAAGUUUGGACUGGGCAGAGCUCAACACAGCGUGGCAAAGUGGCUGUGGCUAGACUGCCUCUCUGGAUUCCUCGUCACUCAGCAGGGCAUCUCUGAGAGAAAUGCC

Variants of: B1
Experiment: self-cleavage, relative activity (ratio to wild type); higher = more cleavage; in vitro, sequencing; the parent is a self-cleaving ribozyme

Variant | self-cleavage
U29A C37U U39C A43G G86A C146U | 0.05
U29A C103A U112C C128U | 1.3
U29A G55A A69C | 0.03
U29A G83A U102C | 0.92
U29A U45C A69U | 0.19
U29A U46C C95U A142G | 0.5
U29A U46C U62C C99A | 0.13
U29A U47A U87A | 0.18
U29A U47C A92U U102C | 0.66
U29A U96A A124C | 0.04
U29A U96C U102C | 0
U29A U100C U134C | 0.44
U29A U104A U112C U134C | 1.06
U29A U108C A136G U143C | 2.24
U29A U119A G125U | 1.82
U29C A30G A31U A117C A136U | 0
U29C A30G U91C | 0.77
U29C A30U A43G | 0.74
U29C A30U A136G | 1.18
U29C A30U G36A A121U A140U | 1.1
U29C A30U U104C U115C | 1.84
U29C A31G A50U A77U | 0.84
U29C A31G U96A A141G | 0.14
U29C A31U U39C U132C | 0.5

Variant | self-cleavage
U29C A31U U104A | 0.21
U29C A43G A77U G88A A121U | 0.06
U29C A43G U96C C133A A136G | 0
U29C A43G U112C | 1.67
U29C A50G G53U G58A U115A A141G | 0.03
U29C A57G A121G A138G | 0
U29C A59G U73A U112C U143C | 0
U29C A64U A78G U112A | 0.53
U29C A64U U112C U115C | 0.43
U29C A67C A69U | 0.04
U29C A67G A140G | 0
U29C A67U A107G | 0.38
U29C A67U A129U | 0.19
U29C A69G G74A U102C | 0.78
U29C A69G U104C | 0
U29C A69G U119C | 0.92
U29C A69U A129U U134A A140G | 0.1
U29C A77G A141G | 2.58
U29C A77G C118U U119A | 2.41
U29C A78G A129U | 1.98
U29C A79G U119C | 0.68
U29C A79U A140G | 1.99
U29C A117G A124U | 1.84
U29C A124G A136G | 1.31

Variant | self-cleavage
U29C C37U A140G | 0.79
U29C C63U U85A | 0.09
U29C G34A U108C A117U | 1.67
U29C G34U C98U A142U | 0.89
U29C G35U U39G A42G G72C A140G | 0.78
U29C G36C U102C A107G | 1.79
U29C G40A A140G | 0.96
U29C G41A C68U | 0.07
U29C G55A U62A | 0.05
U29C G55C A69U U100C | 0.37
U29C G60C U73A | 0
U29C G72C U87A U119C | 0.16
U29C G83A A140G | 0.94
U29C G83A U100C | 1.61
U29C G93A U100C U104A | 0.11
U29C G125U A136G | 1.54
U29C U39A A57G U130C U134A | 0
U29C U45C A117U A124U U134C A142G | 0.97
U29C U46A A64G A138G | 0.22
U29C U46C C84A U115C A138G | 0.23
U29C U46C U62G C123U | 0
U29C U47A A129C | 1.49
U29C U47A U62C | 0.12
U29C U47C A64G A79G | 1.31

Variant | self-cleavage
U29C U52A U62C U108C A117U A138G | 0
U29C U52A U85C A124G | 0.15
U29C U52A U115C | 2.47
U29C U62A A141G | 0.07
U29C U62C A77G A78G | 0.66
U29C U62C U108C | 0
U29C U73A U108C A124G | 1.15
U29C U73C A117U | 1.36
U29C U85A A94G | 0.41
U29C U85C G137U | 0.32
U29C U85C U108C | 0
U29C U87C U100A U112C A140G | 0
U29C U87C U119C | 0
U29C U102C G106A | 1.32
U29C U102G U132C | 0
U29C U104C U119A U132C | 0
U29C U108A C120A | 1.23
U29C U119C A124G A140G | 0.6
U29C U134C A138G C146U | 1.28
U29G A50U U96A U108C A121U U132C | 0
U29G A77U U112C | 1.88
U29G G33U G48A A69U U100C A140G | 0.1
U29G U62C U112A | 0.09
A30C A78U A141G | 2.88

Variant | self-cleavage
A30C A94G A142G | 0.48
A30C U73A A121G | 1.84
A30C U87A U102C A142G | 0.05
A30C U104C A117C A142G | 0
A30G A31G G35A U39C A140U | 0.95
A30G A42G A57U | 0.75
A30G A42G A69G U119C | 0
A30G A42G C76U | 0.71
A30G A43G U47C C56U U87A U132C A140G | 0
A30G A50U U73C U81C U104A | 1.53
A30G A50U U87A U109C A140G | 0
A30G A57G A121G | 2.04
A30G A57U A140G | 0.55
A30G A57U A141G | 0.33
A30G A59U C71A | 0.64
A30G A64G A138G | 1.38
A30G A64G U112A | 0.36
A30G A64U A129G A140G | 1
A30G A65G U130C A138G | 0
A30G A67C A129U A140G | 0
A30G A67C U102A | 0.27
A30G A67U U112C | 0.18
A30G A69G A140G | 0.23
A30G A77G U104A | 1.25

Variant | self-cleavage
A30G A79G A121G A136G | 1.15
A30G A79U A107G | 1.18
A30G A124U A138G | 1.78
A30G A138G A142G | 1.41
A30G A140G U143C | 0.89
A30G G32U U46C | 1.1
A30G G33A A136G | 1.36
A30G G34U C118G | 0.86
A30G G35U A59G A65G A129U | 0.18
A30G G36A C113A | 1.26
A30G G40A U81A C90U | 0.07
A30G G44A U81A A94U | 0.21
A30G G53A A121G A140G | 1.55
A30G G60C U81C A121G A140U | 0
A30G U39A C76A U100C U115C A117G U132A | 1.02
A30G U39A G49U | 0.8
A30G U39C G60A C90A | 0.1
A30G U39C U45C C131U U134C G135U | 0.98
A30G U39C U73G A141U | 0.88
A30G U39C U119A A140G | 0.92
A30G U45A A141U | 1.05
A30G U45A G72U A78G | 0.94
A30G U45C U109C | 2.04
A30G U46C U130C A141G | 1.53

Variant | self-cleavage
A30G U46C U143C | 0.88
A30G U46G A57U U109C | 1.15
A30G U47C G97A | 0.73
A30G U52A A64U U73C | 0.69
A30G U52A U115C A121G | 0
A30G U52C A59U | 0.54
A30G U52C A67U U85A A124G | 0
A30G U52C A77U | 0.97
A30G U52C G137U A141G G144U | 0.79
A30G U62A A117G | 0
A30G U62A A124U A138G | 0.06
A30G U62A U100C C110U U119C | 0.22
A30G U62C A140G | 0.42
A30G U62G U87C U96A | 0
A30G U73A A117U | 1.43
A30G U73A U109C | 1.5
A30G U85C U143C | 0.44
A30G U87C A140G | 0.44
A30G U91C U115C A142G | 0
A30G U96A A107C U109C A129U A140G | 0
A30G U96A U119A | 0.15
A30G U96C U108A | 0.4
A30G U100C C123G | 0.81
